Test [1] addresses his-tagged cynomolgus BCMA protein (ACROBiosystems, catalog # BCA-052H7) (cynomolgus). The experiment in a line: ELISA, his-tagged BCMA on Ni-NTA plate at 2 µg/mL, antibody at 20 µg/mL. In general terms: In an ELISA, binding on a coated surface is turned into a signal by an enzyme label.
The target of test [2] is T1, Mutant-2 human BCMA protein-mouse Fc (human).
T1 construct: also called mutant-2 human BCMA-mouse Fc (del32-35G); mutant-2 BCMA protein
T1 chain: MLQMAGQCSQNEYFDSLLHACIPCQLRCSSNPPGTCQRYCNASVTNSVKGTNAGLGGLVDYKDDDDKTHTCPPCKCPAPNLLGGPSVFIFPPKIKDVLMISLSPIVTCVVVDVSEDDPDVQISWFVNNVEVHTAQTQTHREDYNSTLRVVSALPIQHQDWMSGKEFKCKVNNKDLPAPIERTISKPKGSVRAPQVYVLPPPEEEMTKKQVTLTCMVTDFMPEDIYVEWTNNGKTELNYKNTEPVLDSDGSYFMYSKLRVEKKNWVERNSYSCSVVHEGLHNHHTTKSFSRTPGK
The experiment in a line: bio-layer interferometry, antibody (100 nM) on AR2G sensor, BCMA-mouse Fc in solution.

Amino acid sequences for entries named in this document (tags omitted). Residues count along the entry.
UniProt O88472, residues 1-49: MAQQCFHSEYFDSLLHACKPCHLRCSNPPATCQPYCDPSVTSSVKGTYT

Test [3] concerns the target T2, Mutant-1 human BCMA protein-mouse Fc (human).
T2 construct: also called mutant-1 human BCMA-mouse Fc (17G-18G); mutant-1 BCMA protein
T2 chain: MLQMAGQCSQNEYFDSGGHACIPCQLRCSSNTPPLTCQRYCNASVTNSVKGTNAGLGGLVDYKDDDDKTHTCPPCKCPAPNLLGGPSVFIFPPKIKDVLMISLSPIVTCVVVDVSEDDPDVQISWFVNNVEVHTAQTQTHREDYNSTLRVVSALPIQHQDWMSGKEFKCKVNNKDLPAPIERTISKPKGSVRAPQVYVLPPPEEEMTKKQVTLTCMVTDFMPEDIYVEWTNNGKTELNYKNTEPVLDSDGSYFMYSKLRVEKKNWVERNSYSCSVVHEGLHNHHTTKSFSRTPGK
Described as above.

Test [4] deals with his-tagged human BCMA protein (ACROBiosystems, catalog # BCA-H522y-100 ug) (human) (UniProt Q02223). The experiment in a line: SPR, his-tagged human BCMA as analyte. Background: SPR reads the build-up and loss of mass on a sensor chip optically.
Test [5] shares this target. The experiment in a line: SPR, his-tagged human BCMA; KD only in the figure.
For test [6], the target named is his-tagged mouse BCMA protein (ACROBiosystems, catalog # BCA-M52H3) (mouse) (UniProt O88472). The experiment in a line: SPR, his-tagged mouse BCMA; KD only in the figure.
For test [7], the target named is his-tagged cynomolgus BCMA protein (ACROBiosystems, catalog # BCA-052H7) (cynomolgus). The experiment in a line: SPR, his-tagged cynomolgus BCMA; KD only in the figure.
For test [8], the target named is his-tagged human BCMA protein (ACROBiosystems, catalog # BCA-H522y-100 ug) (human) (UniProt Q02223). The experiment in a line: ELISA, his-tagged BCMA on Ni-NTA plate at 2 µg/mL, antibody at 20 µg/mL.
The target in test [9] is his-tagged mouse BCMA protein (ACROBiosystems, catalog # BCA-M52H3) (mouse) (UniProt O88472). The description is as above.
In test [10] the target is T3, Wild type human BCMA protein-mouse Fc (human).
T3 construct: also called wild type human BCMA-mouse Fc; wild type BCMA protein
T3 chain: T2 chain with G17L, G18L
The experiment in a line: bio-layer interferometry, antibody coupled to AR2G sensor, human BCMA-mouse Fc at 2 ug/mL.

In test [11] the target is T3, Wild type human BCMA protein-mouse Fc. The experiment in a line: bio-layer interferometry, antibody (100 nM) loaded on AR2G sensor, BCMA-mouse Fc in solution. As for the experimental part:
(§1) The results of the protein-protein binding assays described in Example 8 were used to design an epitope mapping assay using bio-layer interferometry. Various anti-BCMA antibodies (2C5, 2E1, 4C9, 6G8, Bluebird C11D5, GSK J6M0, or isotype control) (100 nM) were loaded onto AR2G sensors and reacted with buffer or one of three types of human BCMA proteins including: including: wild type human BCMA-mouse Fc (SEQ ID NO:5), mutant-1 human BCMA-mouse Fc (double mutation 17G-18G; SEQ ID NO:6), or mutant-2 human BCMA-mouse Fc (mutation del32-35G; SEQ ID NO:7).

For test [12], the target named is T1, Mutant-2 human BCMA protein-mouse Fc. The description is as above. As for the experimental part: as §1
The next test concerns the target T4, BCMA on MM1R cells (human, UniProt Q02223).
T4 construct: full length, on the surface of MM1R multiple myeloma cells; also called MM1R multiple myeloma cell line
T4 sequence (receptor, looked up): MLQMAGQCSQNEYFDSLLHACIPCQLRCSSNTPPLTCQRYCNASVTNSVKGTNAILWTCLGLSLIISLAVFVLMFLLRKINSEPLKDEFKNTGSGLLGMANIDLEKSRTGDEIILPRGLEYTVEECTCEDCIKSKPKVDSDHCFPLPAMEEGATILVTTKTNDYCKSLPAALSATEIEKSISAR
The experiment in a line: flow cytometry on MM1R cells, 5x serial dilution, FITC goat anti-human IgG F(ab')2, GeoMean BL1-H. An excerpt: Flow cytometry was used to test antibody binding to multiple myeloma cell line MM1R, using various anti-BCMA antibodies (5× serial dilution) and 80,000 cells per well. The secondary antibody was FITC AffiniPure FAB2 fragment goat anti-human IgG (H+L) (from Jackson Immuno Research). […] A BL-1 detector (IntelliCyt iQue Screener Plus) which detects at 530 nm was used. The geometric mean is reported.

Where a chain is given by its changes, count along the chain named. Results are given in words; binding and its absence hold for the method and conditions named. Some results given as binding are weak or reduced against the parent protein; the word gives no strength.

B1: GSK J6M0 antibody (GSK anti-BCMA Ab) (antibody, V domains shown)
VH: QVQLVQSGAEVKKPGSSVKVSCKASGGTFSNYWMHWVRQAPGQGLEWMGATYRGHSDTYYNQKFKGRVTITADKSTSTAYMELSSLRSEDTAVYYCARGAIYDGYDVLDNWGQGTLVTVSS
VL: DIQMTQSPSSLSASVGDRVTITCSASQDISNYLNWYQQKPGKAPKLLIYYTSNLHSGVPSRFSGSGSGTDFTLTISSLQPEDFATYYCQQYRKLPWTFGQGTKLEIK
notes: Comparator anti-BCMA antibody; captured by anti-human Fc in SPR, so it carries a human Fc; also called GSK antibody
For the molecule B1, the results for the binding result in test [1] and in [2] were “binds” and “no binding”, respectively.

B2: BC4C9 antibody (antibody, V domains shown)
VH: EVQLVQSGAEVKKPGASVKVSCKAFGYTFTSYDINWVRQATGQGLEWMGWMNPNSGNTGYAQKFQGRVTMTRNTSISTAYMELSSLRSEDTAVYYCASGLGEWGQGTLVTVSS
VL: QSVLTQPASVSGSPGQSVTISCTGTSSDVGGYNYVSWYQQHPGKAPKLMIYDVSKRPSGVSNRFSGSKSGNTASLTISGLQAEDEADYYCISYSSSSTFYVFGTGTKVTVL
With B2, in test [3], the binding entry is given as “no binding”.

B3: Bluebird C11D5 antibody (BB anti-BCMA Ab) (antibody, V domains shown)
VH: QIQLVQSGPELKKPGETVKISCKASGYTFTDYSINWVKRAPGKGLKWMGWINTETREPAYAYDFRGRFAFSLETSASTAYLQINNLKYEDTATYFCALDYSYAMDYWGQGTTLTVSS
VL: DIVLTQSPASLAMSLGKRATISCRASESVSVIGAHLIHWYQQKPGQPPKLLIYLASNLETGVPARFSGSGSGTDFTLTIDPVEEDDVAIYSCLQSRIFPRTFGGGTKLEIK
notes: Comparator anti-BCMA antibody; also called BB C11D5; Bluebird antibody
As to B3, the binding result in test [1] was “binds”.

B4: BCA7-2C5 antibody (antibody, V domains shown)
VH: EVQLVESGGGLVKPGGSLRLSCAASGFTSSTAWMSWVRQAPGKGLEWVGRIKSKSDGGTTDYAAPVKGRFTISRDDSKNTLFLQMNSLKTEDTAVYYCAKGGGTYGYWGQGTTVTVSS
VL: QSALTQPASVSGSPGQSVTISCTGTSSAHGGHYYVSWYQQHPGKAPKLMIYDVSNRPSGVSNRFSGSKSGNTASLTISGLQAEDEADYYCGSYTSSGSYVFGTGTKLTVL
As for B4, the binding entry in [4], in test [5], in [6], in test [7], in [1] and in test [8] was “binds” each time. In addition, the binding entry in [9] is “binds”; in test [10], “binds”; in test [3], “no binding”; in test [11] it was “binds”; in test [12] it was “binds”; with BCMA on MM1R cells, “binds”.

B5: BCA7-2E1 antibody (antibody, V domains shown)
VH: B4 VH
VL: B4 VL with A28D, H29G, Y33T, G59W
notes: also called BCA-2E1
Take B5: the binding entry in test [7] is reported as “binds”; in [1] it was “binds”; in test [3] it was “no binding”.

B6: BCA7-2D8 antibody (antibody, V domains shown)
VH: B4 VH
VL: B4 VL with A3V, A28S, H29I, G31D, H32S, K106T
Consider B6, for which the binding entry in test [4] is reported as “binds”.
